The values that follow come from publication PMC4336329 (PLoS ONE, 2015).

Screen size: about 310,000 compounds; about 2,200 (0.71%) showed an effect of 50% or more. The effect is printed as a negative number. Some of the results follow.

Chain of human ether-à-go-go-related gene (hERG) potassium channel (Q12809 whole entry, looked up): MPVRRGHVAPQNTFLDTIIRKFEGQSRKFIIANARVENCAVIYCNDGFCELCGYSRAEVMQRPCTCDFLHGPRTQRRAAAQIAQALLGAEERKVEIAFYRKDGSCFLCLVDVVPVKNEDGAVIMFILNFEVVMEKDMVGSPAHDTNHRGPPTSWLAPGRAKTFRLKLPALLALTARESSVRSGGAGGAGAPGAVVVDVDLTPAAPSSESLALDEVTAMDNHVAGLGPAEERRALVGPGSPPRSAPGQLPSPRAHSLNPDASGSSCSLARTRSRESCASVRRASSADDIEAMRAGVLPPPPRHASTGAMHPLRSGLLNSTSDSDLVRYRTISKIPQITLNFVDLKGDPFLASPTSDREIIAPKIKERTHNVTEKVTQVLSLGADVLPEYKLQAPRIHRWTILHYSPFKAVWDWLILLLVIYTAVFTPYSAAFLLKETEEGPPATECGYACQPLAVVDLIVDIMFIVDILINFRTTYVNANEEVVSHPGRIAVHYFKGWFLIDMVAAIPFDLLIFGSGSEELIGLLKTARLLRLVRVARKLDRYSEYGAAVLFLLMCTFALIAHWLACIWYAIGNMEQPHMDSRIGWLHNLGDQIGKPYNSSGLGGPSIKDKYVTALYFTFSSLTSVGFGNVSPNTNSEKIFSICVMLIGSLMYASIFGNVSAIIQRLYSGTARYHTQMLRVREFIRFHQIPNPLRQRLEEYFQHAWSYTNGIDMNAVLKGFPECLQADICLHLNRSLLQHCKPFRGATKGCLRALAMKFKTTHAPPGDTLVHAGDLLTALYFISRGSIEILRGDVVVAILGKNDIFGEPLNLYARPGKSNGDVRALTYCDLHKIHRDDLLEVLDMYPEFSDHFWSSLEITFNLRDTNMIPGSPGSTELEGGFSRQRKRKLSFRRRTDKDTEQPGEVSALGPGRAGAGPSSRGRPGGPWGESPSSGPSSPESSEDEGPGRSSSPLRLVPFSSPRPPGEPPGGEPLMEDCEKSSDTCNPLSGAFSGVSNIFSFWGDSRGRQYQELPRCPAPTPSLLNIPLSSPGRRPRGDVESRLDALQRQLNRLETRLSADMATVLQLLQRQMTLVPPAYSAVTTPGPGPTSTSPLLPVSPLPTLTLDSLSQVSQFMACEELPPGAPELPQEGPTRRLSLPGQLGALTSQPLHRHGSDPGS

The assay has as its target human ether-à-go-go-related gene (hERG) potassium channel (human, UniProt Q12809). Kind of assay: primary screen, population patch clamp on CHO cells stably expressing hERG.
Turning to `Cc1cc(/C=C2\C(=O)NC(=O)N(C)C2=O)c(C)n1-c1ccc2c(c1)OCO2`, the “hERG current change (%, negative = inhibition) at 1uM” value is given as 13.5%.

As to `Cc1ccccc1NC(=O)Cn1c(NCC(C)O)nc2ccccc21` (centres unmarked), the “hERG current change (%, negative = inhibition) at 1uM” value was -3.14%.

For the compound `O=C(c1cccs1)N1CCN(CCc2ccccc2)CC1`, the “hERG current change (%, negative = inhibition) at 1uM” value is recorded as -24.7%.

In the case of `CC1CCCN(S(=O)(=O)c2ccc(Cl)s2)C1` (centres unmarked), the “hERG current change (%, negative = inhibition) at 1uM” value is 12%.

Take `Cc1ncc([N+](=O)[O-])n1CC(=O)Nc1ccccc1`: the “hERG current change (%, negative = inhibition) at 1uM” value was found to be 10.7%.

Turning to `CCOC(=O)c1cnc(-n2nc(C)cc2C)nc1Nc1ccc(OC)cc1`, the “hERG current change (%, negative = inhibition) at 1uM” value is listed as -10.8%.

For `Cc1ccc(CN2CC(C(=O)Nc3ncccc3C)CC2=O)cc1` (centres unmarked), the “hERG current change (%, negative = inhibition) at 1uM” value is given as -3.17%.

With `c1coc(CNc2nc(-c3ccncc3)cs2)c1`, the “hERG current change (%, negative = inhibition) at 1uM” value came out at 2.54%.

Regarding `O=C(NCC1CC1)c1cc(-c2ccccc2)nn1CC1CC(c2cccc([N+](=O)[O-])c2)=NO1` (centres unmarked), the “hERG current change (%, negative = inhibition) at 1uM” value is -4.28%.

Take `O=C(COc1ncnc2sccc12)N1CCN(C(=O)c2ccco2)CC1`: the “hERG current change (%, negative = inhibition) at 1uM” value turned out to be 12.4%.

As to `COc1ccc(Cn2c(CCC(=O)NCCC(C)C)nc3ncccc3c2=O)cc1`, the “hERG current change (%, negative = inhibition) at 1uM” value is listed as -12%.

On to `Cc1ccc(C)c(NC2=NCC(=O)N2c2ccc3c(c2)OCCO3)c1`, for which the “hERG current change (%, negative = inhibition) at 1uM” value is recorded as -0.557%.

On to `Cc1cc([N+](=O)[O-])c(C)cc1-c1ccc(/C=N/NC(=O)Cn2nnnc2N)o1`, for which the “hERG current change (%, negative = inhibition) at 1uM” value is 8.58%.

As for `Cn1c(=O)c(C(=O)NC2CCCCCC2)c(O)c2ccccc21`, the “hERG current change (%, negative = inhibition) at 1uM” value is on record as 15.5%.

Consider `C/C=C/C(=O)Nc1cccc(C2=NOC3(C2)C[C@@H](C(N)=O)N(C(=O)C(c2ccccc2)c2ccccc2)C3)c1` (some centres unmarked), for which the “hERG current change (%, negative = inhibition) at 1uM” value was 9.84%.

For `COc1ccc(-n2nnnc2SCC(=O)N2C(C)CCCC2C)c(OC)c1` (centres unmarked), the “hERG current change (%, negative = inhibition) at 1uM” value was 8.14%.

Regarding `CC(C)(C)NC(=O)C1N(c2cccnc2)C(=O)C2C(C(=O)Nc3ccccc3F)C3(C)C=CC21O3` (centres unmarked), the “hERG current change (%, negative = inhibition) at 1uM” value is recorded as -13.1%.

In the case of `O=C(Cn1cc(C(F)(F)F)cc(Cl)c1=O)Nc1cc(Cl)cc(Cl)c1`, the “hERG current change (%, negative = inhibition) at 1uM” value worked out at 10.3%.

Turning to `O=[N+]([O-])c1nn(-c2ccc(Cl)cc2)n(O)c1=NCc1ccccc1Cl`, the “hERG current change (%, negative = inhibition) at 1uM” value is 6.45%.

In the case of `Cc1ccc(C(=O)C(C)OC(=O)c2cc(=O)[nH]c3ccccc23)cc1` (centres unmarked), the “hERG current change (%, negative = inhibition) at 1uM” value is 19.9%.

Regarding `Cc1cc(C)c(S(=O)(=O)NCc2ccccn2)cc1C`, the “hERG current change (%, negative = inhibition) at 1uM” value was 10.3%.

Turning to `CCOC(=O)C(NC(=O)c1ccccc1Cl)(Nc1ccc(C(F)(F)F)cc1)C(F)(F)F` (centres unmarked), the “hERG current change (%, negative = inhibition) at 1uM” value came out at 4.99%.

Take `O=C(O)c1ccc(Oc2cc(Oc3ccc(C(=O)O)cc3)cc([N+](=O)[O-])c2)cc1`: the “hERG current change (%, negative = inhibition) at 1uM” value was 12%.

Turning to `CCOC(=O)/C=c1\s/c(=C\c2c(OC)ccc3ccccc23)c(=O)n1CC(=O)NCC1CCCO1` (centres unmarked), the “hERG current change (%, negative = inhibition) at 1uM” value turned out to be 7.6%.

On to `O=C(COc1ccc(/C=N/NC(=O)c2ccc(O)cc2)cc1)Nc1cccc([N+](=O)[O-])c1`, for which the “hERG current change (%, negative = inhibition) at 1uM” value came to 19.6%.

As for `Cc1ccc2c(C)c(C(=O)NCCN3CCCC(O)C3)oc2c1C` (centres unmarked), the “hERG current change (%, negative = inhibition) at 1uM” value stood at 14.1%.

In the case of `COc1cc(C(=O)NCCc2ccc(S(=O)(=O)N3CCCC3)cc2)cc(OC)c1OC`, the “hERG current change (%, negative = inhibition) at 1uM” value is on record as -7%.

In the case of `Cc1cc(/C=N/n2cnnc2)c(C)n1-c1ccc(Cl)cc1Cl`, the “hERG current change (%, negative = inhibition) at 1uM” value is given as 6.1%.

For `NC(=O)N/N=C/c1cc(Br)ccc1OCC(=O)NCc1ccccc1`, the “hERG current change (%, negative = inhibition) at 1uM” value worked out at 10.8%.

For `COc1ccc(C(=O)Nc2ccc(S(=O)(=O)N(C)c3ccccc3)cc2)cc1`, the “hERG current change (%, negative = inhibition) at 1uM” value came out at 14.3%.

In the case of `O=C(Cn1ccc([N+](=O)[O-])n1)Nc1ccccn1`, the “hERG current change (%, negative = inhibition) at 1uM” value is 26.2%.

For `Cc1ccc(C(C(=O)NCc2ccco2)N(CC2CCCO2)C(=O)Cn2nnc3ccccc32)cc1` (centres unmarked), the “hERG current change (%, negative = inhibition) at 1uM” value was 10.8%.

For the compound `Cc1cccc(OCCSc2nc3ncnc(N)c3[nH]2)c1`, the “hERG current change (%, negative = inhibition) at 1uM” value stood at 3.41%.

In the case of `COc1ccc2nc(NC(=O)C3=NN(c4ccccc4)C(=O)CC3)sc2c1`, the “hERG current change (%, negative = inhibition) at 1uM” value amounted to 19.5%.

For `CCOc1ccc(NC(=O)Nc2ccccc2SC)cc1`, the “hERG current change (%, negative = inhibition) at 1uM” value came to 15.5%.

As for `CCOC(=O)n1c(=O)oc2cc(S(=O)(=O)N3CCCCC3)ccc21`, the “hERG current change (%, negative = inhibition) at 1uM” value stood at 16.5%.

Regarding `CN1C(=O)/C(=C/c2ccccc2OCc2ccccc2)NC1=S`, the “hERG current change (%, negative = inhibition) at 1uM” value stood at 13.1%.

As for `Cc1cc(C(=O)CN2C(=O)NC(C)(CC(C)C)C2=O)c(C)n1-c1ccc2c(c1)OCO2` (centres unmarked), the “hERG current change (%, negative = inhibition) at 1uM” value was determined as 11.9%.

For `C/C(=N/Nc1ncc(Br)cn1)c1ccc([N+](=O)[O-])cc1`, the “hERG current change (%, negative = inhibition) at 1uM” value was -0.334%.

For the compound `Cc1cc(C)c(OCC(=O)N(Cc2cccs2)C2CCS(=O)(=O)C2)c(C)c1` (centres unmarked), the “hERG current change (%, negative = inhibition) at 1uM” value was 2.16%.

Regarding `CC(C)(C)c1cc(-c2csc(Nc3ccccc3)[n+]2Cc2ccc(C(=O)O)cc2)cc(C(C)(C)C)c1O.[Br-]`, the “hERG current change (%, negative = inhibition) at 1uM” value is on record as -6.68%.

Regarding `Cc1ccccc1CC1(CO)CCCN(Cc2nc(-c3cccs3)oc2C)C1` (centres unmarked), the “hERG current change (%, negative = inhibition) at 1uM” value is recorded as 6.69%.

With `CN1C(=O)/C(=C\c2ccco2)N=C1c1ccc(Cl)cc1Cl`, the “hERG current change (%, negative = inhibition) at 1uM” value amounted to 0.551%.

As to `O=c1c2c(nc3cc(-c4cccc(F)c4)[nH]n13)CCC2`, the “hERG current change (%, negative = inhibition) at 1uM” value was determined as 4.68%.
